Here are results for 19 compounds from the supplement of paper PMC9446081.

The whole screen tested about 39,000 compounds, of which about 220 (0.56%) showed activity. Some of the results follow.
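Note: static incubation at 37 °C against the wild-type strain, values averaged over two biological replicates.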

The subject of this test is Escherichia coli K-12 BW25113. The test can be described thus: relative growth (OD600 normalised to plate interquartile mean) (fraction); higher = less growth inhibition, active = 0.2 or less. The conditions noted are these: 50 µM; LB; incubation time: overnight (16-24 h).
With `Fc1cccc2c(Cl)ccnc12`, the relative growth is inactive: 0.976.

Take `CNC[C@H]1COCCO1`: the relative growth was inactive: 1.04.

Consider `CCOC(=O)[C@@H]1CCCCN1C(=O)C(=O)OC`, for which the relative growth is inactive: 1.

As to `C[C@H]1CN([C@@H](C)CO)C(=O)Cc2cc(NC(=O)CCC(F)(F)F)ccc2O[C@H]1CN(C)C(=O)Nc1ccc(C(F)(F)F)cc1`, the relative growth is inactive: 0.995.

On to `Cn1c(=O)c(=O)n(C)c2cc(S(=O)(=O)N3CCOCC3)ccc21`, for which the relative growth is inactive: 0.971.

With `C[C@H]1CN([C@@H](C)CO)S(=O)(=O)c2ccc(C#Cc3cccnc3)cc2O[C@H]1CN(C)C(=O)CN(C)C`, the relative growth is inactive: 0.992.

`Cc1ccc(S(=O)(=O)N(C)C[C@@H]2Oc3c(NS(C)(=O)=O)cccc3C(=O)N([C@H](C)CO)C[C@H]2C)cc1`: the relative growth is inactive: 0.957.

With `Cc1noc(C)c1NC(=O)Nc1ccc2c(c1)C(=O)N([C@H](C)CO)C[C@H](C)[C@@H](CN(C)S(C)(=O)=O)O2`, the relative growth was inactive: 0.971.

Take `C[C@@H]1CN([C@@H](C)CO)C(=O)CCCn2nncc2CO[C@@H]1CN(C)C(=O)Nc1ccc(C(F)(F)F)cc1`: the relative growth was inactive: 0.975.

Regarding `CCOC(=O)/C(C)=N/NC(C)=O`, the relative growth was inactive: 1.01.

As for `O=C(C[C@@H]1C=C[C@@H](NC(=O)c2cccnc2)[C@@H](CO)O1)NCCN1CCCCC1`, the relative growth was inactive: 1.01.

As for `C[C@H](CO)N1C[C@H](C)[C@@H](CN(C)C(=O)Nc2ccc3c(c2)OCO3)OCCCC[C@H](C)Oc2ccc(NC(=O)NC3CCCCC3)cc2C1=O`, the relative growth was inactive: 1.02.

As for `CN(C)CC#Cc1ccc([C@@H]2[C@@H](CO)N3C(=O)CN(C(=O)CN(C)C)C[C@H]23)cc1`, the relative growth was inactive: 1.01.

With `Cc1noc(C)c1NC(=O)Nc1ccc2c(c1)C(=O)N([C@H](C)CO)C[C@@H](C)[C@H](CN(C)C(=O)c1ccccc1)OCCCC[C@H](C)O2`, the relative growth was inactive: 0.998.

Turning to `COc1ccc(NC(=O)Nc2ccc3c(c2)[C@@H]2C[C@H](CC(=O)NCc4ccccn4)O[C@H](CO)[C@@H]2O3)cc1`, the relative growth was inactive: 1.02.

On to `CC(=O)C1(O)CCC2C3C=C(Cl)C4=CC(=O)C5CC5C4(C)C3CCC21C` (centres undefined), for which the relative growth was inactive: 1.15.

Regarding `COCC(=O)N[C@@H]1C=C[C@H](CC(=O)N2CCCCC2)O[C@H]1CO`, the relative growth is inactive: 0.891.

On to `Cc1ccc(S(=O)(=O)Nc2ccc3c(c2)C(=O)N([C@H](C)CO)C[C@@H](C)[C@@H](CN(C)Cc2ccc(Cl)c(Cl)c2)OCCCC[C@H](C)O3)cc1`, for which the relative growth was inactive: 1.

Turning to `Cc1noc(C)c1S(=O)(=O)N(C)C[C@H]1OCCCC[C@@H](C)Oc2ccc(NC(=O)Nc3ccccc3)cc2C(=O)N([C@H](C)CO)C[C@@H]1C`, the relative growth was inactive: 1.
